Inconclusive means that the source gave no clear call. Such entries were picked first, then a sample of the others. For part of these data: Potencies of inconclusive entries are left out as doubtful fits. For part of these data: A note “side channel” means that the fit belongs to a control or component signal, not to the main read-out. Activity calls are given as the source filed them. Unless noted, the call rests on the fitted dose curve; in most records, active means well fitted curve in the direction sought with a large enough effect; inconclusive means small, poorly fitted or top-dose-only effect, or another doubt; inactive means no such curve, though single readings can be large; an effect the other way counts as inactive or inconclusive. Where a SMILES comes first, the peptide text is derived from it. The star is where a group is joined. AFC = O=c1cc(C(F)(F)F)c2ccc(N*)cc2o1
Experiments:
[1] = biological target: Glutathione peroxidase 1 (Homo sapiens) (UniProt P07203); experiment: Primary qHTS Assay for Inhibitors of Recombinant Selenoprotein Glutathione Peroxidase 1 (GPX1) (AID 1845191); further: potency means the concentration at half of the fitted maximal effect; nearly all actives have a fitted effect of over 65% in size
Method in brief: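 NADPH consumption tracked by fluorescence at 340/450 nm between t=0 and t=15 min, room temperature. Final mix: 10 nM GPX1, 100 nM glutathione reductase, 1 mM GSH, 0.5 mM NADPH, 0.5 mM cumene hydroperoxide, 0.01% BSA; 30 min compound–enzyme preincubation.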

[2] = biological target: Phospholipid hydroperoxide glutathione peroxidase GPX4 (Homo sapiens) (UniProt P36969); experiment: Primary qHTS Assay for Inhibitors of Recombinant Selenoprotein Glutathione Peroxidase 4 (GPX4) (AID 1845192); details: activity change, negative = inhibition: at 50 µM (top of the series) unless noted; further: potency means the concentration at half of the fitted maximal effect; nearly all actives have a fitted effect of over 65% in size
Method in brief: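 NADPH consumption followed by fluorescence at 340/450 nm, t=0 and after 15 min at room temperature. Reaction started with cumene hydroperoxide (0.5 mM final) after 30 min compound–GPX4 preincubation; final 200 nM GPX4, 100 nM GR, 1 mM GSH, 0.5 mM NADPH.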

CASKI = experiment: Primary qHTS to identify gynecologic anti-cancer compounds using libraries of approved drugs and bioactive compounds (AID 1345084); details: Gynecologic cancer cell panel viability, ATPlite luminescence, 48 h; series mostly up to 57.5 µM; further: on the % scale 0 is the no-effect control and ±100 the full control effect; nearly all actives have a fitted effect of over 55% in size
Method in brief: (§1)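 Cytotoxicity screen measuring ATP content by luciferase luminescence. Each compound is applied at five concentrations for 48 h at 37 C with 5% CO2.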

OV90 = experiment: as above; details: Gynecologic cancer cell panel viability, ATPlite luminescence, 48 h; series mostly up to 57.5 µM
Method in brief: as §1

[3] = qHTS Assay for Lipid Storage Modulators (AID 1519; calls by dose curve; further: on the % scale 0 is the no-effect control and ±100 the full control effect); details: Drosophila S3 cells, BODIPY lipid droplet/cell ratio, laser cytometry, cells loaded with oleic acid; activity change, negative = inhibition: at 57.5 µM (top of the series) unless noted
Method in brief: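 Cells seeded at 5,000 per well were treated with compounds over a concentration series and loaded with oleic acid (400 uM, as added). Lipid droplet fluorescence (488 nm excitation, 500-530 nm channel) was read by laser-scanning cytometry and normalized to 20 uM Triacsin C.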

[4] = qHTS assay for small molecule agonists of the antioxidant response element (ARE) signaling pathway (AID 651741; active means well fitted activation curve with a large enough effect in the signal ratio; inconclusive means small, poorly fitted or top-dose-only effect, or effect the other way, or a change in a side signal; the % refers to the signal ratio; further: % of control where 0% means no effect); details: HepG2 ARE-bla reporter, beta-lactamase FRET ratio, 16 h; activation: at 96 µM (top of the series)
Method in brief: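 Beta-lactamase reporter under ARE control in HepG2 cells, 2,000 per well, was induced by 16 h compound treatment at 37 C. Read-out was fluorescence from LiveBLAzer B/G FRET substrate after 2 h at room temperature.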

[5] = qHTS assay for small molecule activators of the p53 signaling pathway (AID 651743; active means well fitted activation curve with a large enough effect in the signal ratio, not every such curve was filed as active; inconclusive means small, poorly fitted or top-dose-only effect, or a change in a side signal; the % refers to the signal ratio; further: potency means the concentration at half of the fitted maximal effect); details: HCT-116 p53RE-bla, beta-lactamase FRET ratio, 16 h; activation: hits give high values
Method in brief: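 After 16 hours compound treatment at 37 C, HCT-116 cells stably expressing p53RE-driven beta-lactamase were loaded with LiveBLAzer B/G FRET substrate for 2 hours at room temperature. Fluorescence intensity served as the p53 activation read-out.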

[6] = qHTS assay for cell viability of HEK293 cells (AID 743288); details: ATP luminescence (CellTiter-Glo), 18 h; max response: hits give low values; further: on the % scale 0 is the no-effect control and ±100 the full control effect; nearly all actives have a fitted effect of over 50% in size
Method in brief: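 Steps: plate 2,000 parental HEK293 cells per well; incubate ≥5 h, 37 C; add compounds in DMSO; incubate 18 h, 37 C; add CellTiter-Glo; wait 30 min at room temperature; read luminescence.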

[7] = qHTS of pediatric cancer cell lines to identify multiple opportunities for drug repurposing: Primary screen for TC32 cells (AID 1347089); further: on the % scale 0 is the no-effect control and ±100 the full control effect; nearly all actives have a fitted effect of over 60% in size
Method in brief: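 TC32 cells, 500-1,000/well in growth medium, compound-treated 48 h at 37 °C; viability from CellTiter-Glo luminescence. Primary screen: MIPE 11-point (0.78 nM–46 µM final), NPC 8-point (0.59 nM–46 µM final); confirmatory at 11-point dilutions.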

[8] = qHTS of pediatric cancer cell lines to identify multiple opportunities for drug repurposing: Primary screen for SK-N-MC cells (AID 1347093); details: SK-N-MC viability, CellTiter-Glo luminescence, 48 h; activity change, negative = cytotoxic: at 46 µM (top of the series);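 further: plate controls were DMSO neutral control for no effect and bortezomib for full effect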
Method in brief: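 Metabolically active cells were quantified by ATP-dependent luminescence (CellTiter-Glo, 15 min at room temperature) following 48 h treatment. Cells had been plated at 500-1,000 per well and settled for 5 h beforehand.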

[9] = qHTS of pediatric cancer cell lines to identify multiple opportunities for drug repurposing: Primary screen for BT-37 cells (AID 1347094);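 further: plate controls were DMSO for no effect and bortezomib for full effect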
Method in brief: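 Plated cells (500-1,000 per well, growth media) were allowed to settle for 5 hours, treated with compound dilutions for 48 hours, then lysed with CellTiter-Glo for 15 min at room temperature before luminescence reading.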

[10] = qHTS of pediatric cancer cell lines to identify multiple opportunities for drug repurposing: Primary screen for BT-12 cells (AID 1347101);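 further: plate controls were DMSO for no effect and bortezomib positive control for full effect; nearly all actives have a fitted effect of over 25% in size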
Method in brief: (§2)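 Cells (500-1,000/well) rested 5 h, then received compounds for 48 h; metabolically active cells were measured by CellTiter-Glo luminescence. Final concentrations spanned up to 46 µM (MIPE, 11-point) or 0.59 nM-46 µM (NPC, 8-point) in primary screens, 11-point in follow-ups.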

[11] = qHTS of pediatric cancer cell lines to identify multiple opportunities for drug repurposing: Primary screen for OHS-50 cells (AID 1347103); details: OHS-50 osteosarcoma viability, CellTiter-Glo luminescence, 48 h; activity change, negative = cytotoxic: at 57.3 µM (top of the series);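 further: plate controls were DMSO neutral control for no effect and bortezomib positive control for full effect; nearly all actives have a fitted effect of over 40% in size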
Method in brief: as §2

[12] = A High-Content qHTS Against Drug Library for the Identification of Small Molecules that Inhibit DYT1 Early Onset Primary Dystonia-Associated Cell Pathology (AID 1645839; calls by dose curve)
Method in brief: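 High-content imaging quantified EGFP-TorsinA mislocalization in HEK293-derived cells inducibly expressing DYT1 mutant torsinA, after 48 h exposure to compound given together with tetracycline induction. Cell count served as a toxicity channel alongside %pathology.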

[13] = Primary qHTS for inhibitors of nuclear receptor binding SET domain protein 2 (NSD2) in an RCH-ACV wild type WT cells (2C) (AID 1645877); details: activity change, negative = cell killing: at 44.9 µM (top of the series) unless noted; further: on the % scale 0 is the no-effect control and ±100 the full control effect; nearly all actives have a fitted effect of over 70% in size
SKOV3 = experiment: Primary qHTS to identify gynecologic anti-cancer compounds using libraries of approved drugs and bioactive compounds (AID 1345084); details: Gynecologic cancer cell panel viability, ATPlite luminescence, 48 h; series mostly up to 57.5 µM; further: on the % scale 0 is the no-effect control and ±100 the full control effect; nearly all actives have a fitted effect of over 55% in size
Method in brief: as §1

[14] = Drug repurposing screens with cells derived from glioblastoma tumor samples (AID 1345199); details: GBM patient neurospheres viability, ATP luminescence, 48 h; Potency: tumour line A unless noted; activity, negative = cell killing: at 46 µM (top of the series), tumour line A unless noted; further: potency means the concentration at half of the fitted maximal effect; nearly all actives have a fitted effect of over 40% in size
Method in brief: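 Primary testing used CD133+ neurospheres from four GBM patients, seven concentrations, 48 h exposure and ATP-based viability; confirmation added three slower-growing patient lines.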
Tags describe the fitted curve by direction and shape.

Sequence of UniProt P07203 (P07203 whole entry, looked up): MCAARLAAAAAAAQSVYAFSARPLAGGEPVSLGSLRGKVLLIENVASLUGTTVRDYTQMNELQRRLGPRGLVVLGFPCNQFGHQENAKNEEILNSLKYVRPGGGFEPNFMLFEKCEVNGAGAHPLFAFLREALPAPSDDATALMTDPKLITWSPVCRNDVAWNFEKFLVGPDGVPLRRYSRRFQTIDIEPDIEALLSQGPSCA
Sequence of UniProt P36969 (P36969 whole entry, looked up): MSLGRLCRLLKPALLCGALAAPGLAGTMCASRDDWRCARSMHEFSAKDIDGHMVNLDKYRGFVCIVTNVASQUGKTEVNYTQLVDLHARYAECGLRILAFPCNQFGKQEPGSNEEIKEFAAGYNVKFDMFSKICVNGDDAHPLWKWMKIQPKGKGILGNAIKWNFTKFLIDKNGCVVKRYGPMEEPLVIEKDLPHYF

| SMILES | Potency [1] | Potency [2] | Potency (CASKI) | Potency (OV90) | Potency [3] | Potency [4] | Potency [5] | max response [6] | Potency [7] | Potency [8] | Potency [9] | Potency [10] | Potency [11] | Potency [12] | Potency [13] | Potency (SKOV3) | Potency [14] |
| --- | --- | --- | --- | --- | --- | --- | --- | --- | --- | --- | --- | --- | --- | --- | --- | --- | --- |
| CC(=O)N[C@@H](Cc1c[nH]c2ccccc12)C(=O)N[C@@H](CCC(=O)O)C(=O)N[C@@H](Cc1cnc[nH]1)C(=O)N[C@@H](CC(=O)O)C(=O)Nc1ccc2c(C(F)(F)F)cc(=O)oc2c1 (Ac-WEHD-{AFC}) | inconclusive [inhibitor, partial curve] | inconclusive [inhibitor, partial curve] | inactive | inactive | – | – | – | – | – | – | – | – | – | – | – | – | – |
| Cc1ncc(CO)c(CO)c1O | – | – | inactive | – | inactive | inactive | inconclusive [side channel, falling, partial curve, poor fit] | inactive: -15.6% | inactive | inactive | inactive | inactive | inactive | inactive | inactive | inactive | inconclusive [inhibitor, partial curve, poor fit] |
